The source of these data is article PMC6819661.

For assay [1], the target named is ZIKV NS2B protein (from virus-infected or viral RNA-transfected cells) (Zika virus (Cambodian strain FSS13025)). Description: co-IP.
Assay [2] deals with ZIKV prM protein (from virus-infected or viral RNA-transfected cells) (Zika virus (Cambodian strain FSS13025)). Description: co-IP.
The target in assay [3] is HA-NS2A (ZIKV NS2A with an N-terminal HA tag, expressed from HA-NS2A ZIKV) (Zika virus (Cambodian strain FSS13025)). The experiment in a line: Western blot of whole-cell lysate; Whole-cell lysates of HA-NS2A ZIKV-infected Vero cells blotted with rabbit HA antibody; bands of monomer, dimer and higher oligomers. A general note: In western blotting, separated proteins are transferred to a membrane and probed.

Assay [4] concerns the target prM-Flag expressed from plasmid pXJ-prM-Flag (Zika virus). The experiment in a line: co-IP; HEK293T cells cotransfected with pXJ-HA-NS2A and a plasmid for Flag-tagged prM, E, NS2B or NS3; 24 h p.t.; lysates precipitated with HA or Flag antibody (the target of a row is the precipitated protein); Western blot.
Assay [5] addresses NS3-Flag expressed from plasmid pXJ-NS3-Flag (Zika virus). The assay is described as above.
Assay [6] concerns the target NS2B-Flag expressed from plasmid pXJ-NS2B-Flag (Zika virus). Described as above.
In assay [7] the target is HA-NS2A expressed from plasmid pXJ-HA-NS2A (Zika virus). The assay is described as above.
Assay [8] deals with HA-NS2A (ZIKV NS2A with an N-terminal HA tag, expressed from HA-NS2A ZIKV) (Zika virus (Cambodian strain FSS13025)). Description: co-IP.
The target is the same in assay [9]. Description: co-IP; Vero cells infected with HA-NS2A ZIKV at MOI 0.01, harvested at 72 h; lysate incubated with HA antibody in the presence or absence of RNase A (60 μg/ml) at 4°C overnight; Western blot.

Results are given in words; binding and its absence hold for the method and conditions named. For some assays here: In cells and extracts the contact can be indirect. Some entries that bind do so weakly or less than the wild type.

“HA-NS2A (ZIKV NS2A with an N-terminal HA tag, expressed from HA-NS2A ZIKV) (from UniProt A0A142I5B9 1147-1372)”: the binding result in [1], in assay [2] and in [3] was “binds” throughout.

As for “HA-NS2A expressed from plasmid pXJ-HA-NS2A (from UniProt A0A142I5B9 1147-1372)”, the binding entry in [4], in [5] and in assay [6] was “binds” in each case.

For “NS2B-Flag expressed from plasmid pXJ-NS2B-Flag (from UniProt A0A142I5B9)”, the binding result in [7] was “binds”.

On to “NS3-Flag expressed from plasmid pXJ-NS3-Flag (from UniProt A0A142I5B9 1503-2119)”, for which, in assay [7], the binding entry is reported as “binds”.

Turning to “ZIKV NS1 protein (from virus-infected cells) (from UniProt A0A142I5B9 795-1146)”, the binding result in [8] was “no binding”.

Take “ZIKV NS2B protein (from virus-infected or viral RNA-transfected cells) (from UniProt A0A142I5B9)”: the binding result was “binds” in assay [9], “binds” in assay [8] and “no binding” in [2].

Regarding “ZIKV NS3 protein (from virus-infected or viral RNA-transfected cells) (from UniProt A0A142I5B9 1503-2119)”, the binding entry was “binds” in [9], “binds” in assay [8], “binds” in [1] and “no binding” in assay [2].

For “ZIKV NS4B protein (from virus-infected cells) (from UniProt A0A142I5B9 2270-2520)”, in [8], the binding result is “no binding”.

With “ZIKV capsid (C) protein (from virus-infected cells) (from UniProt A0A142I5B9)”, the binding entry in assay [8] is recorded as “no binding”.

Regarding “ZIKV envelope (E) protein (from virus-infected or viral RNA-transfected cells) (from UniProt A0A142I5B9)”, the binding entry is on record as “binds” in assay [9], “binds” in assay [8], “no binding” in assay [1] and “binds” in assay [2].

As for “ZIKV prM protein (from virus-infected or viral RNA-transfected cells) (from UniProt A0A142I5B9)”, the binding result in assay [9] is reported as “binds”; in [8], “binds”; in assay [1] it was “no binding”.

With “prM-Flag expressed from plasmid pXJ-prM-Flag (from UniProt A0A142I5B9)”, the binding result in assay [7] is on record as “binds”.
